# Data published in paper PMC4336329 (PLoS ONE, 2015).
# Hit rate of the full screen: of about 310,000 compounds, about 2,200 (0.71%) showed an effect of 50% or more. The effect is printed as a negative number. The list shows a part of the results.
# Biological target: human ether-à-go-go-related gene (hERG) potassium channel (human, UniProt Q12809)
# Assay: primary screen, population patch clamp on CHO cells stably expressing hERG
# Sequence of human ether-à-go-go-related gene (hERG) potassium channel (Q12809 whole entry, looked up): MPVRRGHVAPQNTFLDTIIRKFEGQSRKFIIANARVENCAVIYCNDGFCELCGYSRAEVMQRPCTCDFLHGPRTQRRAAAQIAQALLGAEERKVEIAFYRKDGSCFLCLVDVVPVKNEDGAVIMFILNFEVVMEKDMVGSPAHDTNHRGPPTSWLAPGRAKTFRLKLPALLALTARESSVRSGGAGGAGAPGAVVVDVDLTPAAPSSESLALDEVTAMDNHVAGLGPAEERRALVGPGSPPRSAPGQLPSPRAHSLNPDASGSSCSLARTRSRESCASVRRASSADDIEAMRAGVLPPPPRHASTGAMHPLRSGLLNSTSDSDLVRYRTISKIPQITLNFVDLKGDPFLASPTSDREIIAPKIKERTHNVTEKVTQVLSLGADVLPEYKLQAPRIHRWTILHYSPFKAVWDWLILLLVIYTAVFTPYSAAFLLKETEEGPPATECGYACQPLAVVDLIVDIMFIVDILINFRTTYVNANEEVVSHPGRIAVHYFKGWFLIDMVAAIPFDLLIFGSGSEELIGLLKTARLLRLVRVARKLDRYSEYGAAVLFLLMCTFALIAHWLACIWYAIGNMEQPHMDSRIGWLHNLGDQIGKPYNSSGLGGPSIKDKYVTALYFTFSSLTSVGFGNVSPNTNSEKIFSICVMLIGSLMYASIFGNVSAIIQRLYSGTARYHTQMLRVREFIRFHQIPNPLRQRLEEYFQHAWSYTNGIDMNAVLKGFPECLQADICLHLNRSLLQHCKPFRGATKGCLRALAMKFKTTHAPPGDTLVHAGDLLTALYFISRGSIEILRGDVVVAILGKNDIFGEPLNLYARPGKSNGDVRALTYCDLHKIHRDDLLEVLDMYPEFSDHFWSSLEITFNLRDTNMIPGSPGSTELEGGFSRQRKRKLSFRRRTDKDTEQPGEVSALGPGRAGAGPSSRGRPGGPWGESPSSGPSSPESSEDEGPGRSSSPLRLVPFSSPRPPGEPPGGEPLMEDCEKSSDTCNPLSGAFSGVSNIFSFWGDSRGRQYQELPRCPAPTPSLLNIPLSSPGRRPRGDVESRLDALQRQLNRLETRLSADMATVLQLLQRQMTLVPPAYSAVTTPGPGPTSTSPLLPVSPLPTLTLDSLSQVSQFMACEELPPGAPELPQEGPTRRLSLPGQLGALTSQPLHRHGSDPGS
row,SMILES,"hERG current change (%, negative = inhibition) at 1uM"
1,CCOC(=O)c1c(N)ssc1=S,-5.03%
2,COC(=O)c1sc(=S)n(-c2ccccc2OC)c1N,0.775%
3,O=C(Nc1ccc(Br)cc1)c1nn(C23CC4CC(CC(C4)C2)C3)cc1Br,9.75%
4,CSC(=Nc1cccc(C)c1)NC#N,13.2%
5,O=C(N/N=C/c1sc(=O)n(-c2ccccc2)c1Cl)c1ccccc1,2.05%
6,COc1cc(C)ccc1OCCCOc1ccccc1Br,12.3%
7,COc1ccccc1/C=C/C1(C(=O)NC2CCCC2)CC(=O)N1c1ccc(C)cc1 (centres unmarked),-1.18%
8,CC(C)CN1CCN(Cc2cccn2-c2ccc(Cl)cn2)CC1CCO (centres unmarked),-20.6%
9,CCCC(=O)Nc1ccccc1NC(=O)c1cc(OC)c(OC)c(OC)c1,14.3%
10,Cc1cccc(C)c1OCCOC(=O)c1n[nH]c2ccccc12,-1.07%
11,COC(=O)CN1C(=S)N(Cc2ccccc2)C(=O)C1CC(=O)Nc1ccc(OC)cc1 (centres unmarked),-3.35%
12,O=C1N=C2SCCN2/C1=C\c1ccccc1Cl,5.64%
13,Cc1ccc(S(=O)(=O)N(C)C)cc1NC(=O)COC(=O)C1CCCC1,-0.454%
14,CC(C)C(C)NC(=O)CN1C(=O)NC(c2ccccc2)(c2ccccc2)C1=O (centres unmarked),7.23%
15,CC12CCC(C(=O)NCCCN3CCOCC3)(OC1=O)C2(C)C (centres unmarked),14.4%
16,CC1c2ccsc2CCN1C(=O)NC(=O)c1ccc(Cl)cc1 (centres unmarked),8.35%
17,CCCCC(NC(=O)Cc1c(C)c2cc3c4c(oc3c(C)c2oc1=O)CCCC4)C(=O)O (centres unmarked),12%
18,CN1CCC(N(C)C(=O)CCc2nc3ccccc3c(=O)[nH]2)CC1,7.32%
19,CCOC(=O)Cc1csc(N/N=C/c2ccccc2)n1,4.06%
20,COc1cc2c(cc1OC)CN(Cc1ccc(OC)c(C)c1OC)CC2,-18.8%
21,CCOC(=O)Cc1csc(NC(=O)c2ccc(Cl)s2)n1,7.13%
22,O=C(COc1ccccc1)NCC(=O)Nc1ccncc1,-0.475%
23,NC1=NC[C@H](c2ccccc2)N1CC1CCCCC1,8.49%

row,SMILES,"hERG current change (%, negative = inhibition) at 1uM"
1,Cl.O=C(O)c1cccc(Nc2nc(-c3cccnc3)nc3ccccc23)c1,1.54%
2,O=C(NNC(=O)C1CC1)c1cccc([N+](=O)[O-])c1,6.05%
3,O/C=c1\ccc2cccc3nc(C(F)(F)F)nc1c23,11.8%
4,O=C1OC(N2CCN(c3ccccn3)CC2)c2ccccc21 (centres unmarked),10%
5,COc1ccc(OC)c(C2CC(=O)N3CN(c4ccc(C)c(Cl)c4)CSC3=C2C#N)c1 (centres unmarked),13.3%
6,FC(F)(F)c1nnc(-c2ccccc2)nc1Sc1ccc(Cl)cc1,15.5%
7,CCOC(=O)C1CCCN(S(=O)(=O)c2ccc3c4c2CC(=O)N4CC(C)S3)C1 (centres unmarked),14.3%
8,NNC(=O)C(=O)Nc1ccc(O)cc1,8.1%
9,CCCc1cc(=O)oc2c(C)c3occ(C)c3cc12,2.66%
10,OCCNc1ncnc2c1cnn2Cc1ccccc1,10.3%
11,Cc1ccc(C2=NN(CCC(=O)NCCCN3CCOCC3)C(=O)CC2)cc1,-9.94%
12,CC1(C)Cc2c(c(N3CCOCC3)nc3sc4c(NCc5ccco5)nnnc4c23)CS1,11.5%
13,O=C(CSc1nnc(-c2ccccn2)o1)Nc1cccc(Cl)c1,10.2%
14,CCCCOCCCNC(=O)N[C@@H](CCSC)C(=O)OC,21%
15,CC(=O)N1CCN(C(=O)/C(C#N)=C/c2ccc3c(c2)OCO3)CC1,15.2%
16,COc1cccc(NC(=O)Nc2cc(C(=O)O)ccc2C)c1,13.4%
17,CC1(C)CC(=O)C=C(NNC(=O)OC(C)(C)C)C1,17.5%
18,Cc1cc(OC(=O)c2c(F)cc(F)cc2F)nc(C)n1,14.9%
19,Cc1cc(-c2nnc(SCC(=O)Nc3ccc(C(F)(F)F)cc3)n2C)no1,10%
20,COCCN1C(=O)C(=O)/C(=C(/O)c2ccc(S(=O)(=O)N3CCOCC3)cc2)C1c1cccc(Cl)c1 (centres unmarked),9.26%
21,COc1ccc(NC(=O)CN(C)C(=O)C2CC(=O)N(c3ccc4c(c3)OCCO4)C2)cc1 (centres unmarked),8.76%
22,COc1ccc(CCNC(=O)c2ccc3c(c2)N(Cc2ccc(F)cc2)CCS3)c(OC)c1,7.24%
23,CC(C)CCNc1cc(=O)n(C)c(=O)n1C,-0.61%

row,SMILES,"hERG current change (%, negative = inhibition) at 1uM"
1,Cn1c(CO)cnc1SCC(=O)c1ccc(Cl)cc1,15.3%
2,O=c1ccc(-c2ccc(S(=O)(=O)N3CCN(c4cccc(Cl)c4)CC3)o2)n[nH]1,5.05%
3,COc1cccc(C2/C(=C(\O)c3ccc(OC)c(OC)c3)C(=O)C(=O)N2c2cc(C)on2)c1 (centres unmarked),10.9%
4,COc1ccccc1CCNC(=O)CCn1nc(C)c2c(C)n(-c3ccccc3)nc2c1=O,11.6%
5,CSC1=NP(=S)(SC)N(C)c2nc3n(c21)CCC3 (centres unmarked),8.73%
6,CCOc1cccc(/C(O)=C2/C(=O)C(=O)N(CCOC)C2c2ccncc2)c1 (centres unmarked),7.02%
7,O=C(/C(=C/O)N=Nc1ccccc1)c1ccc(Cl)cc1,11.6%
8,Cc1c(C)c2c(OCC(=O)O)cc3c(c2oc1=O)CCC(C)(C)O3,15.5%
9,O=C(NCC1CCCCC1)c1ccc(Cl)c(S(=O)(=O)N2CCOCC2)c1,-1.25%
10,CC(=O)c1ccccc1NC(=O)COC(=O)/C=C/c1cccs1,17%
11,O=C(NCc1ccco1)C(c1ccc(F)cc1)N(Cc1cccnc1)C(=O)Cn1nnc2ccccc21 (centres unmarked),13%
12,Cc1cccc(NC(=O)N2CCCCCC2)c1,0.499%
13,COc1cc(OC)cc(C(=O)N[C@H](C(=O)OCC(=O)NC(=O)c2cccn2C)C(C)C)c1,6.95%
14,O=C(Cn1cccc1C(=O)c1ccccc1)NCc1ccccc1,13%
15,CC(CC(=O)N1CCc2ccccc21)n1cccn1 (centres unmarked),4.55%
16,N#C/C(=C/c1cccc(C(F)(F)F)c1)c1nc(CCN2C(=O)c3ccccc3C2=O)cs1,-1.46%
17,CC(C)c1ccc2nc(NC(=O)C3CC3)sc2c1,-4.59%
18,Cc1cc(C)c(C(=O)COC(=O)C2CC3CCCC(C2)C3=O)c(C)c1 (centres unmarked),5.52%
19,Cc1ccccc1NC(=O)COC(=O)CCc1ccccc1,14.3%
20,COc1ccccc1N1CCN(C(=O)NCc2cccc(C(F)(F)F)c2)CC1,1.45%
21,CCCCc1[nH]c(=O)c(C#N)c2c1CCCC2,-3.58%
22,COCCNC(=O)CCCN1C(=O)c2ccccc2Sc2ncccc21,16.7%
23,O=C(NCCCN1CCOCC1)C1(c2ccccc2)CCCC1,16.7%

row,SMILES,"hERG current change (%, negative = inhibition) at 1uM"
1,Cc1cc(-c2nnc3sc(C4CCCCC4)nn23)n[nH]1,-6.28%
2,COc1ccc(/C(=N\Nc2ccccc2C(=O)O)c2ccccc2)cc1,6.96%
3,CC(C)CC(=O)Nc1c2c(nn1-c1ccc(F)cc1)CS(=O)(=O)C2,9.35%
4,S=C(Nc1ccc(Cl)cc1)NC1CCN(Cc2ccccc2)CC1,4.81%
5,CCOC(=O)N1CCN(C(=O)Cn2c(=O)sc3ccccc32)CC1,2.18%
6,CC(=O)c1ccc(N2CCN(S(=O)(=O)c3ccc4c(c3)NC(=O)CC(=O)N4)CC2)cc1,11.5%
7,COc1ccc(NS(=O)(=O)c2ccc3oc(SC)nc3c2)cc1,1.11%
8,Cc1ccc(N=c2ssnc2Cl)cc1,18.3%
9,COc1cc(CN2CCN(c3cccc(C)c3C)CC2)cc(Br)c1O,1.25%
10,Cc1ccc(Nc2ccc(C(=O)N3CCCC3)cn2)c(C)c1,7.57%
11,CC(C)CCNC(=O)CN(C(=O)CCC(=O)Nc1nccs1)C1CCCCC1,3.83%
12,Cc1ccc(Nc2nc(N3CCOCC3)nc(N3CCOCC3)n2)cc1Cl.Cl,9.69%
13,O=c1cc(/C=C/c2ccccc2)oc2ccccc12,6.42%
14,COc1ccccc1NC(=O)Cc1noc(CSc2cc(C)c3ccccc3n2)n1,-2.5%
15,O=C(CSc1nnc(C2CC2)n1-c1ccccc1)NCCc1ccc(F)cc1,-0.787%
16,O=C1CNC(=O)/C1=C/c1ccc(Br)cc1,10.1%
17,O=C(c1ccc2nccnc2c1)N1CCN(c2ccccc2)CC1,14.2%
18,CCOC(=O)c1c(CN2CCOCC2)n(-c2ccccc2)c2cc(Br)c(OC)cc12,2.51%
19,c1ccc(Cn2c(SCc3cn4cccnc4n3)nnc2-c2ccco2)cc1,-0.242%
20,CC1=NN(C(=O)c2ccc(Cn3nc(C)c([N+](=O)[O-])c3C)o2)C(O)(C(F)(F)F)C1 (centres unmarked),-14.6%
21,O=C(NCC1CCCO1)C(c1ccc(F)cc1)N(CC1CCCO1)C(=O)c1ccc(-c2ccccc2)[nH]1 (centres unmarked),2.32%
22,CCOC(=O)CSc1nc(-c2ccccn2)ncc1OC,5.74%
23,CCN(CC)S(=O)(=O)c1ccc(NC(=O)CCC2CCCCC2)cc1,1.47%
